Measured values: the BET-seq Pho4 binding data (Le et al. 2018)
The list shows a part of the results. These are noisy estimates, calculated here from bound and input reads.

The sequences below were run against T1, Pho4 (S. cerevisiae) (UniProt P07270) (assay: relative binding free energy (BET-seq); higher = weaker binding). Details: reference: library average.
T1 sequence: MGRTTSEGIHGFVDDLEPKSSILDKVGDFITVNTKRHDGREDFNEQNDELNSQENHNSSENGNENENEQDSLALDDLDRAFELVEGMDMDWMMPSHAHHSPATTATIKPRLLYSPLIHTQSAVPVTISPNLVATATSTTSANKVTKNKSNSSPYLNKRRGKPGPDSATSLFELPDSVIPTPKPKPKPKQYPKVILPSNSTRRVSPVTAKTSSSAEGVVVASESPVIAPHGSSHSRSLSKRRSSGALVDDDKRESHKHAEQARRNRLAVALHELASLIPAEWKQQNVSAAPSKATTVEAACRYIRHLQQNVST

| Sequence | relative binding free energy |
| --- | --- |
| GTGGGCACGTGGCGGC | -0.29 kcal/mol |
| GCGTGCACGTGGCAGG | -0.16 kcal/mol |
| GGGGGCACGTGTGTAT | -0.05 kcal/mol |
| GGGCACACGTGGTTTT | 0.12 kcal/mol |
| TGCTGCACGTGGGACG | -0.1 kcal/mol |
| CTCGTCACGTGTCGTT | 0.12 kcal/mol |
| TATTTCACGTGTTAAT | 0.33 kcal/mol |
| GGAGGCACGTGGGCTA | -0.24 kcal/mol |
| TGTATCACGTGTAATG | 0.07 kcal/mol |
| GTGAACACGTGCTGGG | 0.04 kcal/mol |
| TCTCGCACGTGGTGTA | -0.19 kcal/mol |
| TGCTTCACGTGGAGAG | 0.21 kcal/mol |
| ATTGGCACGTGTTACT | -0.19 kcal/mol |
| ATATTCACGTGTGGGC | 0.24 kcal/mol |
| ATTAGCACGTGTTTTG | -0.17 kcal/mol |
| TAAGACACGTGGTTGT | 0.01 kcal/mol |
| ATATTCACGTGCATGG | 0.29 kcal/mol |
| GGGGGCACGTGGGGGG | -0.08 kcal/mol |
| TATGGCACGTGAGCCG | 0.12 kcal/mol |
| TGTGTCACGTGTATTG | 0.14 kcal/mol |
| GGTGGCACGTGTAATG | 0.12 kcal/mol |
| TAATGCACGTGGAGGC | -0.04 kcal/mol |
| GTATGCACGTGTCGTG | -0.06 kcal/mol |

| Sequence | relative binding free energy |
| --- | --- |
| TTTTACACGTGAGTTA | 0.33 kcal/mol |
| AGGATCACGTGGAGCG | 0.35 kcal/mol |
| CGTTCCACGTGGTATG | 0.12 kcal/mol |
| GGCACCACGTGAGGTT | 0.34 kcal/mol |
| GAGCTCACGTGGGATG | 0.28 kcal/mol |
| ATGATCACGTGGTGGC | 0.09 kcal/mol |
| GGTAGCACGTGCGGCG | -0.01 kcal/mol |
| AAGTTCACGTGCGTTA | 0.25 kcal/mol |
| ATTGACACGTGTAGGG | 0.18 kcal/mol |
| TGTTGCACGTGTCATC | 0.08 kcal/mol |
| GGCTGCACGTGGTCAG | -0.09 kcal/mol |
| GTAGACACGTGGGGGC | 0.03 kcal/mol |
| ACGTTCACGTGGAGGG | 0.14 kcal/mol |
| CTATGCACGTGGGTTT | -0.15 kcal/mol |
| TGTTGCACGTGAAGCT | 0.2 kcal/mol |
| GGGTGCACGTGCGGAT | -0.01 kcal/mol |
| AGAGGCACGTGATTCT | 0.04 kcal/mol |
| AGGGGCACGTGGGCGT | -0.27 kcal/mol |
| TACTGCACGTGAGTTT | 0.18 kcal/mol |
| TGTGGCACGTGAGGGG | 0.18 kcal/mol |
| TCGGGCACGTGTTTTT | -0.05 kcal/mol |
| ATGTTCACGTGTGATC | 0.22 kcal/mol |
| TGTTACACGTGGACAT | 0.2 kcal/mol |

| Sequence | relative binding free energy |
| --- | --- |
| ATAGACACGTGTGGGT | -0.03 kcal/mol |
| CATGTCACGTGGTCGT | -0.06 kcal/mol |
| TGATACACGTGTGCTG | 0.03 kcal/mol |
| CGTTTCACGTGGCGTG | 0.11 kcal/mol |
| GGTAGCACGTGGTGTC | -0.04 kcal/mol |
| GAGTGCACGTGTGATT | 0.15 kcal/mol |
| GCTCGCACGTGGGGTT | -0.25 kcal/mol |
| TCTTGCACGTGAGGGG | 0.15 kcal/mol |
| GAGGACACGTGGTGGG | 0.15 kcal/mol |
| GTTAGCACGTGTTGGG | -0.01 kcal/mol |
| TAGCACACGTGCGGGT | 0.05 kcal/mol |
| AAATACACGTGTGTTA | 0.1 kcal/mol |
| AATGTCACGTGATTGC | 0.27 kcal/mol |
| CGGTTCACGTGAGGTA | 0.44 kcal/mol |
| TTTAGCACGTGATTGC | 0.15 kcal/mol |
| TGTTACACGTGGATTC | 0.15 kcal/mol |
| GAAGACACGTGGGTGG | -0.25 kcal/mol |
| ATAGGCACGTGTACGT | -0.07 kcal/mol |
| GATGCCACGTGCTGGG | 0.04 kcal/mol |
| GAGAGCACGTGGAGTT | 0.02 kcal/mol |
| ATGGTCACGTGGCATG | -0.01 kcal/mol |
| TAAGTCACGTGTGATT | 0.14 kcal/mol |
| AGTGACACGTGCAGTT | -0.08 kcal/mol |

| Sequence | relative binding free energy |
| --- | --- |
| TAGTGCACGTGAGCAG | 0.07 kcal/mol |
| GGTGCCACGTGGAGAT | 0.07 kcal/mol |
| TTGGTCACGTGGCGTT | 0.02 kcal/mol |
| AATAGCACGTGGAGTT | -0.16 kcal/mol |
| GGTAGCACGTGCGATG | -0.01 kcal/mol |
| AAATACACGTGGTGGG | 0.13 kcal/mol |
| CTTCTCACGTGGTTTT | 0.18 kcal/mol |
| GTGTCCACGTGTTGGG | 0.09 kcal/mol |
| AGTTACACGTGTTGCG | 0.22 kcal/mol |
| TATTCCACGTGGAGTT | 0.02 kcal/mol |
| ATACACACGTGGTGTT | -0.18 kcal/mol |
| TTTGTCACGTGGAATT | 0.21 kcal/mol |
| GGTAGCACGTGTAAGT | 0.06 kcal/mol |
| CTCTACACGTGGGGTG | -0.13 kcal/mol |
| GTTTTCACGTGGATAT | 0.24 kcal/mol |
| CTCTTCACGTGATTGT | 0.39 kcal/mol |
| CTTCGCACGTGGTAGT | -0.18 kcal/mol |
| CTGGGCACGTGTAGCT | 0.04 kcal/mol |
| TATCGCACGTGTGTTA | 0.11 kcal/mol |
| TTTTTCACGTGTTGTT | 0.35 kcal/mol |
| TTTATCACGTGTAGGT | 0.21 kcal/mol |
| TCATGCACGTGATTGT | 0.13 kcal/mol |
| TGTTGCACGTGATTGA | 0.1 kcal/mol |

| Sequence | relative binding free energy |
| --- | --- |
| GCGTCCACGTGTGTGT | 0.19 kcal/mol |
| ATTTTCACGTGCGTGC | 0.17 kcal/mol |
| CGTGCCACGTGTTGGT | -0.08 kcal/mol |
| AGGATCACGTGTTGAT | 0.01 kcal/mol |
| AGGGTCACGTGAGGAT | 0.21 kcal/mol |
| TATTCCACGTGGTGAG | 0.03 kcal/mol |
| GAGGGCACGTGACGGG | 0.18 kcal/mol |
| TTGATCACGTGCTTGT | -0.01 kcal/mol |
| GCTATCACGTGATTGG | 0.25 kcal/mol |
| AGAGTCACGTGAGTCG | 0.38 kcal/mol |
| TGATTCACGTGATTTC | 0.38 kcal/mol |
| GTTTACACGTGTATTC | 0.16 kcal/mol |
| AACTACACGTGTGTGG | 0.15 kcal/mol |
| GTTGACACGTGCGGTA | 0.01 kcal/mol |
| TCATTCACGTGGTGTA | 0.01 kcal/mol |
| GTCGTCACGTGGGCTT | -0.07 kcal/mol |
| GAGTTCACGTGCTGGG | 0.23 kcal/mol |
| ATATACACGTGTTATG | -0.14 kcal/mol |
| TTACTCACGTGTGCTT | 0.27 kcal/mol |
| AGTGACACGTGAAAGT | 0.42 kcal/mol |
| TTGTTCACGTGAACGT | 0.34 kcal/mol |
| ATCTTCACGTGGTGAG | 0.22 kcal/mol |
| GGAGGCACGTGGAGCT | -0.23 kcal/mol |
